Assay results: the supplement of paper PMC3334620
The full ranking holds about 33,000 sequences; the median of “E-score (-0.5 to 0.5)” is about -0.017, and the highest 2% start at about 0.3. The list shows a part of the results.

biological target: T1, Sut1 (UniProt P53032); assay: PBM E-score (8-mer binding enrichment) (E-score (-0.5 to 0.5)); higher = stronger / more preferred TF binding; most listed sequences are background and not binding sites; settings: protein concentration: 200 nM; construct: GST-full length
T1 sequence: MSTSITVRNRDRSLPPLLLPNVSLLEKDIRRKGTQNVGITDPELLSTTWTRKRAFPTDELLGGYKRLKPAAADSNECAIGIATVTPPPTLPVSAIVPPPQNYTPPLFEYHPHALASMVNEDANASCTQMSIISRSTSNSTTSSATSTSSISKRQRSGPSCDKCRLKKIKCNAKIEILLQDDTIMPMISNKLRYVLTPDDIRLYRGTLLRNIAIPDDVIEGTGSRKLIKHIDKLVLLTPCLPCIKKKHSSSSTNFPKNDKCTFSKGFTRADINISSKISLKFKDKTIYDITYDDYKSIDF
Outline: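 Universal all-10-mer Agilent arrays, double-stranded by primer extension on fresh or once-stripped slides, were probed with about 100-200 nM GST-tagged yeast transcription factors made by PURExpress. Fluorescent anti-GST detected bound protein, and masliner normalised the scans. E-scores from the Universal PBM Analysis Suite were given to each ungapped eight-base word pooled with its reverse complement.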

Sequence	PBM E-score
AACAAGTA	0.0236
CCCTCCCA	-0.0718
ATGGTATA	0.144
GGAAAGAA	0.21
TGGCGCCA	-0.283
ACTGGGTC	-0.178
CCTGGGAC	-0.394
CGGGGTCA	0.0587
TGCGCCAA	-0.0704
CCCCTTAC	-0.196
AGTATACG	0.0431
AATTTACA	0.11
ATAACATC	0.146
CAATAGCA	0.0114
ACTACGCC	-0.156
GCTTACGA	-0.148
ATTCTAAC	0.0886
GTAATAGA	0.101
CGTCTCAA	-0.0774
AAAGAAAA	0.26
AAATAAAA	0.234
AGCCAGTA	-0.0522
ACATTCAG	-0.0953
TAGATATA	0.24
CTTACCAC	-0.122

Sequence	PBM E-score
AATACAAC	0.224
AATAACCA	0.078
GAGGAATC	-0.0293
ATGATTAC	0.134
CGCACGGC	-0.201
ATATAAAC	0.227
GGGTTTAA	0.0821
AGTCGGCC	0.041
TCGGGCAA	-0.0147
GTTGCGAA	0.0959
GTCGGTAA	0.0048
AGACAGCG	-0.0861
TACAGCTA	-0.185
CGACTTGC	-0.194
ACGCAAAT	0.0352
GTGAGGAA	0.0112
ACAATGAT	0.108
CGTGAAAC	0.0681
GACATTAA	0.159
CCCCACGA	-0.201
CATGAGGA	-0.0148
TCCACGAA	0.0544
AGCTCCTC	-0.098
CCGTGCCC	-0.0573
ATGTTGAA	0.131

Sequence	PBM E-score
AGTTTCAA	0.0369
CTCAATGC	-0.0534
AACGATGC	-0.0717
AAACGAGT	0.133
CCCCTCCA	-0.258
CTATAACA	0.0773
ACGATGGG	-0.221
AGATTCCC	-0.208
AACTGCTC	-0.0543
CCTGGGGC	-0.334
ACATGAAT	0.109
CGCTCTCC	0.0191
CATCTGCC	0.00624
CATTTCAC	0.0596
TAATCAGA	0.148
GCCCTCAC	-0.308
CTCCGCAC	0.306
CCAGTCCG	0.222
CCATTATC	0.00681
ACGCGCCC	-0.19
GTTGGCTA	-0.0553
AACAGATC	0.163
GGGTTACC	-0.268
GCTGCTAA	-0.0153
AATACAGG	0.0674

Sequence	PBM E-score
CGTGCAAC	0.0561
GTCTTAGA	-0.0371
ATAGCCTA	-0.0327
ATAACGGA	0.341
AGGCTTAT	-0.073
ACAACCCC	-0.0152
GATGGTAC	-0.0365
CAATTGTA	0.0377
ATCAGATC	0.0109
CGTGGATA	-0.0261
AACGAGTA	0.0812
AGCACACT	0.0854
ACGTTCAG	-0.347
GCGGTACA	0.0293
ATCCAGTC	0.0525
AAGCGGTC	-0.0841
AGACTACC	0.0631
GCATAGCC	-0.156
ATCAAACC	0.138
CTTCGCTC	-0.0339
CAGCTGGG	-0.178
GGTTAATA	0.163
GAAATCCA	0.115
CTGCCGTC	-0.218
ATTCCTCC	0.0322

Sequence	PBM E-score
AAGTGATT	0.237
CTGTTCGA	0.064
GGGTGAAC	0.0587
CTAACGAA	-0.0566
ATAGACCG	-0.0673
GACTTTTA	0.203
CTGTTGCC	-0.176
GCAAAAGA	-0.0341
GTGTTTAA	0.242
ACGATTAG	0.085
ATAGCCCG	0.0153
ATACGCGG	-0.00574
AGGGACTG	-0.308
AAGAACGG	0.131
AGAAGGCC	-0.061
AAGTCATC	-0.0338
CGATTCTA	-0.0107
CTGCCAAA	-0.0297
CTACCGCC	-0.134
AGTCCACT	-0.112
AAGAAGGT	0.0448
AAAAGTCC	0.394
TGGAGGAA	-0.165
CGATAAGC	-0.07
AGATAGGG	-0.0447

Sequence	PBM E-score
AGACCAAG	0.186
ACCGGTAC	-0.099
GAATGCAA	0.0823
GAAAATGA	0.183
AATAATGA	0.203
ATGCGAAT	0.147
ACGGGCAC	-0.249
AACGGATA	0.285
CCAGTCAA	-0.0619
AACCTTAT	-0.0449
AATAGATC	0.0781
CGCGAGGC	-0.026
CCTTAGCC	-0.153
TCTAAAGA	0.0807
GGCCACCA	-0.115
CGTCCATA	-0.0391
GCGGTATA	-0.0696
CGGAATTA	0.349
AGAGCAAG	-0.0629
ACACGAGT	-0.0151
GTGGCTAA	0.0437
GGTACTAA	0.0592
ACAATCGT	-0.13
CCAAGCGG	-0.272
ACGATCCC	-0.0453

Sequence	PBM E-score
CTATATAC	0.287
CCAACAGG	-0.314
CCCGTTCA	-0.0788
ACCTGATA	0.0775
TTGACAAA	0.232
AAAGGGGG	-0.164
CCCTGTGA	-0.24
CGAACAGC	-0.179
CCTGTTAC	0.0359
CTGTGAAG	-0.0569
GTTGCTAA	0.123
CGATCTAC	-0.0336
GGAAGTTA	0.243
AGGCATCC	-0.18
ATTTCCCA	0.0851
ATAACACG	0.0771
GGTTCATA	-0.0524
CCCCCCGG	-0.367
AATCAAAC	0.176
CCACTTAC	0.0569
CTAGCCGC	-0.0673
AGAGATCC	-0.167
